The text below walks through data of PubChem BioAssay (NCI).

“And” between values parts separate entries of the source, which are not always exact repeats. Identical values can stand only once.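 Five concentrations, 48 hours, 96-well plates. Abbreviation: GI50, concentration required for 50% inhibition of growth. Definition used: TGI = concentration required for complete inhibition of growth.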

In this assay the test system is NCI-H322M lung. Briefly: NCI-60 cell line screen, 48 h.
`O=c1c2c(sc3ccccc13)NCN(CCc1ccccc1)C2` gave a TGI above 100 µM.
For the compound `COC1OCC(OS(=O)(=O)c2ccc(C)cc2)C(OC(=O)c2ccccc2)C1OC(=O)c1ccccc1` (centres undefined), the GI50 is above 100 µM and the TGI was above 100 µM.
For `COCC[N+](CCNC(=O)c1cccc2c(N)c3cccc(C)c3nc12)(CCOC)Cc1ccc([N+](=O)[O-])cc1`, the TGI came to 62.5 µM.
With `CC1(C)CC(=O)C2=C(C1)NC(SSC1=C(C#N)C(c3ccc(Br)cc3)C3=C(CC(C)(C)CC3=O)N1)=C(C#N)C2c1ccc(Br)cc1` (centres undefined), the GI50 is above 150 µg/mL; the TGI is > 100 µM and 150 µg/mL.
Take `COC(=O)CCC(=O)CC(=O)C(=O)Nc1ccc(F)cc1`: the TGI is above 100 µM.
With `C=CCCC(O)c1ccc(C(O)CCCCCCCCCCCC)o1` (centres undefined), the GI50 was 71.8 µM and the TGI is above 100 µM.
On to `Cn1cc(C2=C(c3c4n(c5ccccc35)CC(CN)C4)C(=O)NC2=O)c2ccccc21` (centres undefined), for which the GI50 was 3.78 µM and the TGI was 13.3 µM.
With `COc1ccc(-c2cc(-c3ccc(O)cc3)nc3nc(=S)[nH]c(N)c23)cc1`, the GI50 was 25.5 µM and the TGI was found to be 86.4 µM.
Consider `CCCCCCNC(=O)c1cc(C#Cc2cc(OC)ccc2OC)ccc1OC`, for which the TGI is above 100 µM.
Turning to `COc1cc(C2SCC(=O)N2c2ccc(-c3ccc(-n4c(-c5ccccc5)nc5ccccc5c4=O)cc3)cc2)ccc1O` (centres undefined), the TGI was above 100 µM.
`Cc1ccc(C2(C)NC(=S)N(NC(N)=S)C2=S)cc1` (centres undefined) returned a TGI above 100 µM.
Consider `CC1=NN(c2nc(N)nc(C(C)Sc3cc(Cl)c(C)cc3S(N)(=O)=O)n2)C(C)(C)C1` (centres undefined), for which the TGI was above 10 µM.
Regarding `Cc1cc2cc(Cl)ccc2nc1C(=O)c1ccccc1`, the TGI was above 100 µM.
On the same count and under the same terms, to `Cc1ccc(-c2c(C#N)c(-c3ccc([N+](=O)[O-])cc3)c(C#N)c(=O)n2NS(=O)(=O)c2ccc(C)cc2)cc1` belongs above 100 µM; to `C=C1C(=O)OC2C[C@H](C)C3CC(=O)C(C)=C3CC12` (some centres undefined), above 58.5 µM.
Still for that read-out and setting: the result for `O=C(CCc1nnc2s/c(=C\c3ccc4c(c3)OCO4)c(=O)n12)Nc1cc(Cl)ccc1Cl` reads above 100 µM.
As for `COc1ccccc1CNCCCN1C(=O)c2ccc3c4c(ccc(c24)C1=O)C(=O)N(CCCNCCCCNCCCCN)C3=O`, the GI50 was 1.35 µM and the TGI is 8.81 µM.
The compound `CC(=O)c1ccc(N2CCN(c3c(O)c4c(c(O)c3Cl)C(=O)C=CC4=O)CC2)cc1` had a TGI of 31.3 µM.
`Cc1cc(=O)oc2c(CNC(C)C(=O)O)c(O)ccc12` (centres undefined) showed a TGI above 100 µM.
Turning to `CC/C(Cl)=N\OC(=O)Nc1ccccc1OC(F)(F)F`, the TGI is 35.3 µM.
In the case of `COc1ccc(C2=NN(C(=O)c3ccccc3)C(O)(c3cc(F)c(Cl)cc3Cl)C2)cc1OC` (centres undefined), the TGI is above 100 µM.
The compound `CC(Oc1ccccc1)C(=O)NN` (centres undefined) came in with a TGI above 100 µM.
As for `c1ccc(-c2nc3sccn3n2)cc1`, the TGI was above 100 µM.
As for `C=C1C(=O)O[C@H]2[C@H]1CC/C(COC(=O)/C=C\C(=O)NCc1ccc(Cn3c(=O)sn(-c4ccc(OC)cc4)c3=O)cc1)=C\CC[C@@]1(C)O[C@@H]21`, the GI50 is 2.29 µM and the TGI stood at 7 µM.
Consider `Cc1cc(C)nc(NS(=O)(=O)c2ccc(NC(=O)c3cccc4c(Nc5ccc(S(=O)(=O)Nc6nc(C)cc(C)n6)cc5)c5ccccc5nc34)cc2)n1`, for which the TGI was determined as 42.3 µM.
On the same count and under the same terms, the result for `CC1CC(=O)N2CCCNC2=C1C#N` (centres undefined) reads above 100 µM.
`CCOC(=O)c1c[nH]c2c(OCc3ccccc3)c3ccccc3c(O)c2c1=O`: the GI50 was 23 µM and the TGI stood at 82.2 µM.
Take `CCOCCc1c(O)nc(SC)[nH]c1=O`: the GI50 is above 100 µM and the TGI is above 100 µM.
Take `OC(c1ccsc1)c1cc2ccccc2s1` (centres undefined): the TGI was above 10 µM.
The same measure, in the same setting: to `CN(C)CCSC(=Nc1ccccc1)N1C=COC=C1` belongs above 100 µM; to `O=C1ON(Cc2ccccc2)C(c2ccccc2)N1c1ccccc1` (centres undefined), above 100 µM.
Regarding `O=c1c2cc(Br)ccc2[nH]c(=S)n1-c1ccc(Br)cc1`, the TGI was above 100 µM.
As for `COc1ccc2c(c1)CCc1cnn(C3OC(COC(C)=O)C(OC(C)=O)C(OC(C)=O)C3OC(C)=O)c1-2` (centres undefined), the TGI is above 100 µM.
For `CN(CCCCCl)P(=O)(OCc1ccc([N+](=O)[O-])o1)C(F)(F)c1ccc(CC(=O)N[C@@H](CC(=O)O)C(=O)N[C@@H](Cc2ccc(C(F)(F)P(=O)(OCc3ccc([N+](=O)[O-])o3)N(C)CCCCCl)cc2)C(N)=O)cc1` (some centres undefined), the GI50 was 47.6 µM and the TGI is above 100 µM.
`CC1(C)N(OC2CCCCO2)C(c2ccccc2)C(c2ccccc2)=[N+]1[O-]` (centres undefined) returned a TGI above 100 µM.
Consider `O=C(O)c1cc(N/C=C2\C(=O)c3ccccc3OC2O)ccc1O` (centres undefined), for which the GI50 was 50 µg/mL and the TGI is above 150 µg/mL.
On the same counts, the results for `COc1ccc(C(=O)C(c2ccc(OC)cc2)C2C(=O)Oc3ccccc32)cc1` (centres undefined) are above 100 µM and above 100 µM.
Take `CC(C)=CCC/C(C)=C/CC/C(C)=C/CC/C=C(\C)CC/C=C(\C)CCC1SC1(C)C` (centres undefined): the TGI is above 100 µM.
In turn, `CC(=O)c1c2c(cc3c1CC1(Cc4cc5c(cc4C1=O)CCC5)C3)CCC2` (centres undefined) displayed a TGI above 100 µM.
`COC(=O)[C@@]12CC[C@]1(C(=O)OC)C1C(C)=CC(=O)O[C@@]12C` (some centres undefined) showed a TGI above 100 µM.
Regarding `CCCn1cc(C2=C(c3cn(C)c4ccccc34)C(=O)NC2=O)c2ccccc21`, the GI50 is 2.32 µM and the TGI was above 23.5 µM.
The matching figures for `COc1ccc(Nc2c3c4c(cccc4[nH]c2=O)C(=O)c2ccccc2-3)cc1`: 0.0464 µM and above 100 µM.
Consider `[N-]=[N+]=Nc1ccccc1-[n+]1noc([O-])c1Br`, for which the TGI was above 100 µM.
On to `Cc1[nH]c2ncn3ncnc3c2c1Cc1ccccc1`, for which the TGI was above 100 µM.
With `O=C1NCC2(CCN(Cc3ccccc3)CC2)N1`, the TGI was above 100 µM.
`C/C(=N\Nc1nc2ccccc2[nH]1)c1ccncn1` showed a TGI above 100 µM.
With `CN(C)CCCNC(=O)c1cc(NC(=O)CCNC(=O)c2ccc3c(c2)C(=O)c2ccccc2C3=O)cn1C`, the GI50 was 30.3 µM and the TGI was above 100 µM.
In the case of `COc1ccc2c(CC(=O)O)cc(=O)oc2c1`, the TGI was above 100 µM.
For the compound `OCCOCCN1CCN(c2nc(N3CCCC3)c3nc(Cl)c(NCc4ccccc4)nc3n2)CC1`, the TGI was determined as 29.7 µM.
On the same count and under the same terms, the result for `CC(=O)Oc1ccc2ccc(=O)oc2c1OC(C)=O` reads above 100 µM; that for `C[C@]12CCC3[C@@H](C[C@H]4OC(=O)[C@@]35CCC(=O)C=C45)C1CCC2=O` (some centres undefined), above 100 µM; that for `CSC(=S)N/N=C/c1ccccc1`, above 100 µM.
`Cc1cc(Cl)ccc1NC(=O)/C(Cl)=C(/Cl)C(=O)O` showed a TGI of 29.5 µM.
For `C=C1C(=O)O[C@H]2[C@H]1CC/C(C=Nc1ccc(C(F)(F)F)cc1N)=C\CC[C@@]1(C)O[C@@H]21`, the GI50 was 11.3 µM and the TGI was 24.4 µM.
The compound `COc1nc(/C=N/NC(N)=S)nc(OC)n1` came in with a TGI above 100 µM.
Take `CC1=Nc2nc3ccccc3n2C(C)(C)C1`: the TGI is above 100 µM.
The compound `CSc1c(CC(=O)O)n(Cc2ccccc2)c2ccccc12` came in with a TGI above 100 µM.
Consider `O=C1Nc2ccccc2C1(c1ccc(O)c(F)c1)c1ccc(O)c(F)c1`, for which the GI50 was 0.286 µM and the TGI was 1.09 µM.
Compound `CCc1ccc(CCC(=O)O)nc1` had a TGI above 100 µM.
`O=C1NC2OCC(O)C(O1)C2O` (centres undefined) had a TGI above 100 µM.
Consider `CN(C)c1ccc(/C=C(\C#N)c2cc3ccccc3n2C)cc1`, for which the GI50 is 0.778 µM and the TGI is above 100 µM.
